From the RNAGym collection of RNA variant scans (doi:10.7554/elife.90254)
Read counts are not given, so values of variants with three or more changes are uncertain.

B1: OR4K15 (parent)
chain: GUUAACGGUCAUAGGCCAUGGAAACUAGGAGCACCAUUUCGCUGCCAGUGAAGAAAUGAACAAAGAAAAUCUGGGCCAGGCAGGCAUCAAAAGAAAUAGUCUUGCGCUCAACCAGAAAGUCUGUAAUCAUUUUAAGGGUA

Variants of: B1
Test: self-cleavage, relative activity (ratio to wild type); higher = more cleavage; in vitro, sequencing; the parent is a self-cleaving ribozyme

Variant | self-cleavage
GUUAACGGUCAUAGGCCAUGGAAACUAGGAGCACCAUUUCGCUGCCAGUGAAGAAAUGAACAAGGAAAAUCUGGGCCAGGCAGGCGCCAAAAGAAAUAGUCUUGCGCUCAACCAGAAAGUCUGUAAUCAUUUUAAGGGUA | 0.64
GUUAACGGUCAUAGGCCAUGGAAACUAGGAGCACCAUUUCGCUGCCAGUGAAGAAAUGAACAAGGAAAAUCUGGGCCAGGCAGGCAUCAAAAGAGAUAGUCUUACGCUCAACCAGAAAGUCUGUAAUCAUUUUAAGGGUA | 0.03
GUUAACGGUCAUAGGCCAUGGAAACUAGGAGCACCAUUUCGCUGCCAGUGAAGAAAUGAACAAGGAAAAUCUGGGCCAGGCAGGCAUCGAAAGAAAUAGUCUUGCGCUCAACCUGAAAGUCUGUAAUCAUUUUAAGGGUA | 0.04
GUUAACGGUCAUAGGCCAUGGAAACUAGGAGCACCAUUUCGCUGCCAGUGAAGAAAUGAACAAGGAAAAUCUGGGCCAGGCAGGCAUCAAAGGAAAUAGUCUUGCGCUCAACCAGAAAGUCGGUAAUCAUUUUAAGGGUA | 1.64
GUUAACGGUCAUAGGCCAUGGAAACUAGGAGCACCAUUUCGCUGCCAGUGAAGAAAUGAACAAGGAAGAUCUGGGCCAGGCAGGCAUCAAAAGAAAUAGUCUUGCGCUCAACCAGAAAGUCUGUAACCAUUUUAAGGGUA | 0.75
GUUAACGGUCAUAGGCCAUGGAAACUAGGAGCACCAUUUCGCUGCCAGUGAAGAAAUGAACAAGGAAAAUCCGGGCCAGGCAGGCAUCAAAAGGAAUAGUCUUGCGCUCAACCAGAAAGUCUGUAUUCAUUUUAAGGGUA | 0.2
GUUAACGGUCAUAGGCCAUGGAAACUAGGAGCACCAUUUCGCUGCCAGUGAAGAAAUGAACAAUGAAAAUCUGGGCCAGGCGGGCAUCAAAAGAAAUAGUCUUGCGCUCAACCGGAGAGUCUGUAAUCAUUUUAAGGGUA | 0.16
GUUAACGGUCAUAGGCCAUGGAAACUAGGAGCACCAUUUCGCUGCCAGUGAAGAAAUGAACAAGGAAAAUCUGGGCCAGGCAGGCAUCAAAAGAAAUAGUCUUGCGCUCAACCAGAAGGUCCGUAAUCAUUUUAAGGGUA | 0.55
GUUAACGGUCAUAGGCCAUGGAAACUAGGAGCACCAUUUCGCUGCCAGUGAAGAAAUGAACAAGGAAAAUCUGGGCCAGGCAGGCAUCAAAAGAAAUAGUCUUGCGCUCAACCAGAAAGUCUGUGAUCAUUUUAAGGAUA | 0.61
GUUAACGGUCAUAGGCCAUGGAAACUAGGAGCACCAUUUCGCUGCCAGUGAAGAAAUGAACAAUGAAAAUCUGGGCCAGGCAGGCAUCAAAGGAAAUAGUCUUGCGCUCAACCAGAAGGUCUGUAAUCAUUUUAAGGGUA | 0.74
GUUAACGGUCAUAGGCCAUGGAAACUAGGAGCACCAUUUCGCUGCCAGUGAAGAAAUGAACAAGGAAAAUCUGGGCCAGGCAGGCAUCAAAGGAAAUAGUCUUGCGCUCAACCAGAAAGUCUGUAAUCAUUUUAAGGGUG | 2.21
GUUAACGGUCAUAGGCCAUGGAAACUAGGAGCACCAUUUCGCUGCCAGUGAAGAAAUGAACAAGGAAAAUCUGGGCCAGGCAGGCAUCAAAAGAAAUAGUCAUGCGCUCGACCAGAAAGUCUGUAAUCAUUUUAAGGGUA | 0.08
GUUAACGGUCAUAGGCCAUGGAAACUAGGAGCACCAUUUCGCUGCCAGUGAAGAAAUGAACAAGGAAAAUCUGGGCCAGGUAGGCAUCAAAAGAAAUAGUCUUGCGCUCAACCAGAAAGUCUGUAAGCAUUUUAAGGGUA | 0.12
GUUAACGGUCAUAGGCCAUGGAAACUAGGAGCACCAUUUCGCUGCCAGUGAAGAAAUGAACAAGGAAAAUCAGGGCCAGGCAGGCAUCAAAAGAAAUAGUCUUGCGCUCAACCAGAGAGUCUGUAAUCAUUUUAAGGGUA | 0.25
GUUAACGGUCAUAGGCCAUGGAAACUAGGAGCACCAUUUCGCUGCCAGUGAAGAAAUGAACAAGGAAAAUCUGGGCCAGGCAGGCAUCAAAAGAAAUUGUAUUGCGCUCAACCAGAAAGUCUGUAAUCAUUUUAAGGGUA | 0.3
GUUAACGGUCAUAGGCCAUGGAAACUAGGAGCACCAUUUCGCUGCCAGUGAAGAAAUGAACAAGGAAAAUCUGGGCCAGGCAGGCAUCAAACGUAAUAGUCUUGCGCUCAACCAGAAGGUCUGUAAUCAUUUUAAGGGUA | 0.93
GUUAACGGUCAUAGGCCAUGGAAACUAGGAGCACCAUUUCGCUGCCAGUGAAGAAAUGAACAAGGAAAAUCUGGGCCAGGCAGGCAUCAAAAGAAAUAGUCUUGCGCUCAACCAGAAAGUCUGUGAUCAUUUUGAGGGUA | 0.51
GUUAACGGUCAUAGGCCAUGGAAACUAGGAGCACCAUUUCGCUGCCAGUGAAGAAAUGAACAAGGAAAAUCUGGCCCGGGCAGGCAUCAAAAGAAAUAGUCUUGCGCUCAACCAGAAAGCCUGUAAUCAUUUUAAGGGAA | 0.02
GUUAACGGUCAUAGGCCAUGGAAACUAGGAGCACCAUUUCGCUGCCAGUGAAGAAAUGAACAAGGAAAAUCUGGGCCGGGCAGGCAUCAAAGGAAAUAGUCUUGCGCUCAACCAGAAAGUCUGUAAUCAUUUUAAGGGUA | 0.2
GUUAACGGUCAUAGGCCAUGGAAACUAGGAGCACCAUUUCGCUGCCAGUGAAGAAAUGAACAAGGAAAGCCUGGGCCAGGCAGGCAUCAAAAGAAAUAGUCUUGCGCUCAACCAGAAGGUCUGUAAUCAUUUUAAGGGUA | 0.2
GUUAACGGUCAUAGGCCAUGGAAACUAGGAGCACCAUUUCGCUGCCAGUGAAGAAAUGAACAAGGAAGAUCUGGGCCAGGCAGGCGUCAAAAGAAAUAGUCUUGCGCUCAACCAGAAAGUCUGUAAUCAUUUUAAGGGUA | 1.31
